The full ranking holds about 33,000 sequences; the median of “E-score (-0.5 to 0.5)” is about -0.054, and the highest 2% start at about 0.35. The list shows a part of the results.
Each sequence was assayed against T1, Stb5 (UniProt P38699) (assay: PBM E-score (8-mer binding enrichment) (E-score (-0.5 to 0.5)); higher = stronger / more preferred TF binding; most listed sequences are background and not binding sites). Details: protein concentration: 200 nM; construct: GST-full length.
T1 sequence: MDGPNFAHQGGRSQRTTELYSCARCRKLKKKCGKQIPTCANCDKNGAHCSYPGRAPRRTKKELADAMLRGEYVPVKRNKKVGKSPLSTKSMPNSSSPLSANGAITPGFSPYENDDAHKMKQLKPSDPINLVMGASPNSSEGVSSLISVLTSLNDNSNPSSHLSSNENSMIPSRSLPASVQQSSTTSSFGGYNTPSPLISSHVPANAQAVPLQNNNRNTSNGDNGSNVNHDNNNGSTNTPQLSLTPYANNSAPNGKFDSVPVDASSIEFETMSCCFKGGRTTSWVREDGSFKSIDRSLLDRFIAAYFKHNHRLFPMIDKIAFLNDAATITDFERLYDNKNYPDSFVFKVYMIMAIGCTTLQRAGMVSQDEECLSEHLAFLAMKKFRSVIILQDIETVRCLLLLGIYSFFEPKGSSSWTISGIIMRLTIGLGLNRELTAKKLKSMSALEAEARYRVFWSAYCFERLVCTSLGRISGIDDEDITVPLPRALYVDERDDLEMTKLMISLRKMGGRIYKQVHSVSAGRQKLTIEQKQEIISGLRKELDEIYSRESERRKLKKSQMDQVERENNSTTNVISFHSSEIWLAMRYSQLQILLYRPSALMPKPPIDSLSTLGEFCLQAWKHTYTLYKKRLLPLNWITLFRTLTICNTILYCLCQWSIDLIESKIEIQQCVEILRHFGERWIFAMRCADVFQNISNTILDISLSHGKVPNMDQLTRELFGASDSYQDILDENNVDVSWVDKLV
In short: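 Universal all-10-mer Agilent arrays, double-stranded by primer extension on fresh or once-stripped slides, were probed with about 100-200 nM GST-tagged yeast transcription factors made by PURExpress. Fluorescent anti-GST detected bound protein, and masliner normalised the scans. E-scores from the Universal PBM Analysis Suite were given to each ungapped eight-base word pooled with its reverse complement.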

Sequence | PBM E-score
AATTCTAT | -0.282
CCTTTGCG | 0.03
GTTGTGTA | -0.145
CTTGTATA | 0.0149
CCACCCCC | -0.037
CAAGAAAG | -0.0704
CCAATCAC | -0.157
TCCCGGCA | 0.243
TCTAACAA | -0.148
AGGAACCA | -0.14
ATGTGCTG | -0.162
AGTACTGC | -0.144
GTCTGTGA | -0.203
GAAAATCA | 0.0921
CAGGACAA | -0.122
CCGGCCGC | 0.211
CCGTACGA | 0.0295
AGTCATGC | -0.14
CCCACGTA | -0.253
CTTCACCA | -0.194
AGGAAATA | 0.00598
ACACTCAG | -0.227
AATTGTAT | -0.223
CACTTCCC | -0.0823
ATTTTGGA | 0.14

Sequence | PBM E-score
TGTCAAAA | 0.00068
ACAGTGTC | -0.0649
CTCTAGGA | -0.27
CTGAAATC | -0.172
AAAAAAGG | -0.0775
AGGATATC | -0.0575
ATAGTCAC | -0.0899
AGTGTCCG | 0.233
ATCCGGGA | 0.0192
GCTCTGAA | -0.166
ACGGTAAC | 0.238
AAGGTCCC | -0.236
CTTGATCA | -0.208
CAGACCGA | 0.174
ACGAATCT | -0.0809
GCCACAAA | -0.00122
CGATTCAA | -0.0358
CATGTGGA | -0.218
ATCACACC | 0.274
GGGCTCAC | 0.0952
AGACGAAC | -0.397
ACCAGGTC | -0.0527
CTCTACAC | -0.106
CCTGCAAC | -0.128
ATACAGGC | -0.176

Sequence | PBM E-score
ATTAAATA | 0.058
AGATGTAC | -0.161
ATTATCAG | 0.0804
CGATGAGA | -0.024
AGGGTAAC | -0.0108
CCTATGTA | -0.0975
GTATAGAC | -0.0584
AGCAGGTA | -0.191
CAAACCGG | 0.211
CGCAAACG | 0.0438
ACCAAGGC | 0.0686
CGGCGCTA | 0.447
GCAGATGA | -0.254
AATTGCTA | -0.0566
CTCCTCCC | -0.231
ACCCCCGT | 0.365
CCTTACGC | -0.11
AATTACTA | 0.0188
CATATTAC | 0.225
GCTGAAAC | 0.0803
AGTTGCTG | -0.167
CATACTCC | 0.0644
CGCATAAG | 0.138
AAGATACG | -0.0742
AATGCTGG | -0.101

Sequence | PBM E-score
ACGGGGCA | 0.159
AGACTCGC | -0.209
CCCGCGGA | 0.322
ATTCTGGG | -0.294
AAACCAAG | -0.116
GACAGCTA | -0.221
ATGAGTCG | -0.153
AGGACGTA | -0.182
GGTCGGAA | 0.251
AAAACAGG | -0.204
CAGTCAAC | -0.188
ATGCACAG | -0.234
AATGTCAA | -0.134
AGACAACC | 0.0442
CAGTTTTC | -0.207
AGCCTGAG | -0.266
CATTAAGA | -0.122
TATGCAGA | -0.106
GGGCTCTA | -0.028
AGCAGCCC | -0.196
ACATAAAG | -0.0845
CCCATCGA | -0.0921
CGATACCG | 0.242
AAGTAGGA | -0.333
ACAGGTTC | -0.29

Sequence | PBM E-score
ACTTGCTA | -0.204
GTAAGTGA | -0.111
CGATATGA | -0.0444
AACTTCAG | -0.178
AGGAGTTC | -0.17
GTGATTGA | 0.111
CGCAAACC | -0.0638
GGTTGAAA | -0.0535
AAGTGTAC | -0.243
AAACCCGA | 0.395
ACCTGCTG | -0.155
AAGGAAGA | -0.0247
CCCATGTA | -0.0266
CGCGAGAC | -0.22
AGGCATGC | -0.15
GGCCTCTA | -0.0646
GAGATAGA | -0.0381
TCCATGGA | 0.0702
AAATGCAC | -0.00345
TATGCCCA | -0.123
ATCAAGTG | -0.117
TAGTGTAA | -0.0184
CCATATTA | -0.102
CCCTGAGC | -0.0481
ACTTCACC | 0.063

Sequence | PBM E-score
AGCTTATA | -0.0809
CATTGGAA | 0.0761
ACCATCAG | 0.0204
CAAAGTAG | -0.164
AATCTCCA | 0.0536
CGGGGGAC | 0.136
ACTATAGG | -0.197
AGGCAGAC | 0.0225
GACTTCTA | -0.177
ACTCGACT | -0.224
CCTAAGTC | 0.00031
AGTGAAAT | -0.257
ACGGTGGA | 0.0329
GAGCCCAC | -0.101
CCTGAACA | 0.00453
CTGGCCTC | -0.252
CCTCTAAG | -0.195
GGGCGTAA | 0.156
ATACGTAC | -0.0769
ATTACAGA | 0.0315
AAGAAGTG | -0.136
CGTTCATC | 0.0696
CATGTCTC | 0.148
CAAGGTAC | -0.205
CGTCTGAG | 0.0237

Sequence | PBM E-score
ATAATTGC | 0.209
CAACGTAA | -0.18
CGATAAGA | -0.0622
AGAGTTGG | -0.275
GGTGGCAA | -0.0431
CCCCCGTA | 0.063
GTCGGGAA | 0.289
TACTTCAA | -0.181
CTACTGAA | -0.167
CGGGCAAG | 0.004
CCTACCTC | -0.101
ATGACCCA | -0.309
CCCATAGC | -0.129
CTATATTA | 0.158
CCCTGGAG | -0.234
ATTGTAGG | -0.231
AGGGGACA | -0.232
CCAAATTC | -0.154
GGGGCGTA | 0.0321
CCGGCTGA | 0.0822
CACTACCG | 0.019
ACTTTGTC | -0.145
CCAGCTCA | -0.343
ATTGACCG | 0.255
CCCAGATA | -0.137

Sequence | PBM E-score
ATCTTATA | -0.076
ACCATTCA | -0.173
ACAGCCGC | 0.165
CAACGCGG | 0.194
ATAGAGTA | -0.0125
TCGACACA | -0.0901
GGTGCGAA | 0.259
GGTTCAAC | 0.00115
AAGATAGT | -0.107
GAACACGA | -0.214
ACAAGCCG | 0.0342
CACTACTG | -0.269
GAAGGCCA | -0.142
AATAACAA | -0.0395
CCAAGCCA | -0.174
AAGAAAAG | -0.108
TCGTACAA | -0.211
TCCGGTCA | 0.325
AATGTGCT | -0.0738
AGGGCCTA | 0.0959
CTGGCATC | -0.226
ACGCTTTC | -0.205
AATCCGCA | 0.156
CTGGCGTA | -0.209
CTATGGTC | -0.0974

Sequence | PBM E-score
AAGGTATC | -0.0144
ATACACGC | -0.0452
ATCGGGTG | 0.155
CTGCCCCA | -0.0669
GCTATGAA | -0.0586
GAAACTAA | -0.0553
ATTGTACG | -0.218
GTCCAGTA | 0.0107
AACACAAT | -0.221
CGCGCAAA | 0.0122
AAGGGCCA | -0.312
TCCACTAA | 0.0397
CGCCCGAG | 0.129
ATAACATA | 0.136
ACTGCGTA | -0.0892
CTGGGTAA | -0.162
ACTCCTAA | -0.184
AATGGCCA | -0.173
AGCTTTCA | -0.131
